# Measured values published in ChEMBL document CHEMBL4888484, “Replenishing the malaria drug discovery pipeline: Screening and hit evaluation of the MMV Hit Generation Library 1 (HGL1) against asexual blood stage Plasmodium falciparum ,using a nano luciferase reporter read-out” (2022).
# The whole screen tested about 150,000 compounds, of which about 540 (0.36%) showed an effect of 50% or more. The list shows a part of the results.
# System: Plasmodium falciparum
# Assay: Primary screen in NF54 nanoGlo assay, in single point, at 2uM, 72h; a lower Z score goes with more inhibition
# Format: functional, Erythrocyte
# Conditions: timepoint 72 hour
SMILES,% Inhibition [%],Z score
Cc1nnc(N(C)C(=O)CNC(=O)C(C)(C)C)s1,8,-1.03
C[C@@H]1CN(C[C@@H]2CN(C(=O)c3ccc(F)cc3F)C[C@@H]2CO)C[C@H](C)O1,-6,0.63
CCc1nnc(CNC(=O)C(C)(C)N2CCCC2)s1,-6,0.6
Cc1ccc(CC(=O)N2CCc3[nH]nc(C(=O)N4CCOCC4)c3C2)cc1,-6,1.02
COc1ccc(CNc2cc(C)c(NC(C)=O)c(C)c2)s1,-3,0.43
Cc1c(C2CCN(S(C)(=O)=O)CC2)c2ccccc2n1Cc1ccc(Cl)cc1,-5,0.65
COc1c(F)ccc(CN2CCN3CCC[C@H]3C2)c1F,-14,1.81
O[C@H](COc1ccccc1-c1ccc2c(c1)OCO2)CN1CCOCC1,-1,0.12
CN1CCN(C(=O)c2ccc(C#CC(C)(C)O)o2)[C@H]2CS(=O)(=O)C[C@H]21,2,-0.42
O=C(N[C@@]1(C(F)(F)F)CCOC1)c1cccc(-n2ccnn2)c1,-3,0.3
COCn1cncc1[C@@H](Cc1ccccc1)C(=N)NO,0,0.02
CN(C[C@]1(O)CCc2ccccc21)C(=O)c1ccnn1CC(F)F,0,0.02
Cc1nccn1C[C@H]1CCc2c(c3ccccc3n2C)C1=O [(R)-ONDANSETRON],-1,0.1
Cc1nc(C)n(C2CN(C(=O)Nc3ccccc3C(F)(F)F)C2)n1,-11,1.16
O=C(c1cc(-c2ccc(Cl)cc2)nc2ccc(Br)cc12)N1CCN(C(=O)[C@@H]2CCCO2)CC1,-10,1.21
O=C(Nc1cnc2ccccc2c1)[C@@H]1CCCO1,4,-0.57
CCOc1ccc(-c2cn(C3CN(C(=O)[C@H]4CCOC4)C3)nn2)cc1,-8,0.73
Cc1c(C(=O)N(C)C)sc2c1c(=O)n(-c1ccc(Cl)c(Cl)c1)c(=O)n2CC(=O)N1CCCC[C@@H]1C,-9,1.06
CC(C)c1ccc(N2C(=O)[C@@H]3C[C@@H](NC(=O)c4ccncc4)CCN3C2=O)cc1,-9,1.4
Cc1nc(N2CCCC2)nc(C)c1NC(=O)C1CCN(S(C)(=O)=O)CC1,-12,2.13
CC(C)(C)OC(=O)NCc1cnn(Cc2cn3cccnc3n2)c1,-1,0.17

SMILES,% Inhibition [%],Z score
COc1ccc(N(C(=O)c2sc3cc(F)ccc3c2Cl)S(=O)(=O)c2ccc(Cl)c(NC(=O)c3sc4cc(F)ccc4c3Cl)c2)cc1,-4,0.75
COCCN(Cc1[nH]c2ccccc2c1C)CC1CCN(Cc2ccccc2OC)CC1,0,-0.01
Cc1nc(-c2c3n(c(=O)n(CC(=O)Nc4ccc(C)c(C)c4)c2=O)CCCC3)no1,1,-0.13
O=C(O)C1CCC(C(=O)N2CCC[C@H](c3cccc(C(F)(F)F)c3)C2)CC1 (some centres not stated),-12,1.19
C(=C\c1ccccc1)/CN1CCN(c2ncncn2)CC1,-10,1.7
C=CCn1c(-c2ccccc2Cl)cn2cc(C(=O)N3CCN[C@H](C)C3)nc2c1=O,-11,2.05
NC(=O)c1cncc(N2CCC3C(CCCN3Cc3ccccc3)C2)n1 (configuration not stated),-5,0.81
CCc1ccc(NC(=O)[C@H]2CC(=O)N(c3cccc(C(=O)Nc4ccccc4)c3)C2)cc1,-23,2.22
Cc1nn(-c2ccccc2)c2sc(-c3noc(CNC(=O)c4cccs4)n3)cc12,3,-0.29
CCCN(Cc1c(C)nn(-c2ccccc2)c1N1CCN(CC)CC1)C(=O)Nc1cccc(C)c1,-4,0.67
Cc1ncsc1CCCn1ccnc1-c1cccc2nonc12,-3,0.33
O=C1CCCN1CC(=O)N(CC1CCN(C2Cc3ccccc3C2)CC1)C[C@H]1CCCO1,-10,1.88
Fc1cc2ncn(CN(C3CCCC3)C3CC3)c2cc1F,0,-0.03
COc1ccc(N2CCN3c4cc(OC)ccc4CC(C(=O)NCCC(C)C)C3C2)cc1 (configuration not stated),-8,0.95
O=C(NCCNC(=O)C1CCCO1)C1CCCO1 (configuration not stated),-3,0.27
CC[C@H]1Cn2c(C(=O)N3CCN(c4ccccn4)CC3)cc3c(Cl)ccc(c32)O1,39,-5.66
Cc1cccc(CC(=O)N2CCc3nc(CNC(=O)C4CCC4)n(C)c3C2)c1,-2,0.18
CN(Cc1cc2ccccc2[nH]1)C(=O)C1C2CCCC21 (configuration not stated),-13,1.83
Cc1ccccc1C(=O)N1CC(S(=O)(=O)C2CCCCC2)C1,-5,0.7
Cc1ccc2c(c1)[C@@H](NC(=O)N1CCC3(CC1)CNC(=O)O3)CC(C)(C)O2,-9,1.79
